According to the supplement of paper PMC3334620:
In all, about 33,000 sequences were measured (“E-score (-0.5 to 0.5)”: median about -0.043, highest 2% from about 0.37 on). This is one part of the list.

What follows are sequences tested against T1, Upc2 (UniProt Q12151) (assay: PBM E-score (8-mer binding enrichment) (E-score (-0.5 to 0.5)); higher = stronger / more preferred TF binding; most listed sequences are background and not binding sites). Details: protein concentration: 200 nM; construct: GST-full length.
T1 sequence: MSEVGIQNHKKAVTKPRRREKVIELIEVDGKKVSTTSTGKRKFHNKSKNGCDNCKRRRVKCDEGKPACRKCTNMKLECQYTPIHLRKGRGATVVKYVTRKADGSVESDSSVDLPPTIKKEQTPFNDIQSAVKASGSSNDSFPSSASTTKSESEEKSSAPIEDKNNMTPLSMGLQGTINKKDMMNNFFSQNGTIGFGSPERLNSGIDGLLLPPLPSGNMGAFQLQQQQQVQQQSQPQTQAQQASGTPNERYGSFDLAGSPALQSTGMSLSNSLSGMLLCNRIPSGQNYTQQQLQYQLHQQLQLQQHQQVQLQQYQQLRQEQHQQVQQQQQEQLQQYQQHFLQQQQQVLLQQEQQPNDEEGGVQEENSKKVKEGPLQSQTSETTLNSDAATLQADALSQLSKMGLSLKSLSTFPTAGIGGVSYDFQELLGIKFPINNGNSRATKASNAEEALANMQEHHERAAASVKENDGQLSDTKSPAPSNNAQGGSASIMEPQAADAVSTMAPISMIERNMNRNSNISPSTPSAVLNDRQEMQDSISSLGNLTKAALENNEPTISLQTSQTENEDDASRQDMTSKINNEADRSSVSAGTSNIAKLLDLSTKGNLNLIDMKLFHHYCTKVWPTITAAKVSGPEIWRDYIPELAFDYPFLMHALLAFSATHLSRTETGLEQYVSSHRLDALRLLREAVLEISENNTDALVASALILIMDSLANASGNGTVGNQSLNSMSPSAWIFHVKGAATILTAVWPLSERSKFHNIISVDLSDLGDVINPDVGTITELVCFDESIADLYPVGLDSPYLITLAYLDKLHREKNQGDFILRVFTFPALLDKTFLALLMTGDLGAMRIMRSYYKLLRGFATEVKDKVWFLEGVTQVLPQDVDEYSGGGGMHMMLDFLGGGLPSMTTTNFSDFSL
Method: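 Universal 'all 10-mer' protein binding microarrays (Agilent AMADID 015681) probed with GST-tagged S. cerevisiae TFs (full-length or DBD) made by in vitro transcription/translation (PURExpress), about 100-200 nM. Bound TF was detected with fluorescent anti-GST. Each ungapped 8-mer (which stands for itself and its reverse complement) is scored by the PBM enrichment score (E-score), a modified Wilcoxon-Mann-Whitney statistic from -0.5 to +0.5, computed with the Universal PBM Analysis Suite. Scale: above 0.35 generally sequence-specific binding.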

Sequence	PBM E-score
CATCTCCC	-0.216
AGGCCATG	-0.0826
GCAAAAAC	-0.0354
CTCAAGAC	-0.263
ACCTATAG	-0.365
TCAGTAAA	0.131
CCTCATAC	0.126
AAGGCGAG	-0.047
GTTGAAAA	-0.00956
ATGGCCAC	-0.178
TAAGAGGA	0.103
ATGAAAAT	0.16
CAGTTCAG	-0.0915
AAAATTAC	0.181
CTGTAAGA	-0.0404
CCGTCTAA	-0.103
ACCGTGTA	0.0957
CAATCCAC	-0.232
TAAGCTGA	-0.0574
AACCGGTA	0.00906
TAACCTAA	-0.042
CTGAAGAA	-0.299
CTCACCAC	-0.289
GAATTGGC	-0.0494
ATAAACAT	0.0871

Sequence	PBM E-score
GTATGCAA	0.124
CTCTAGAA	-0.256
GGGAGAGA	-0.266
AGCTTTAG	-0.129
CCTTGGGC	-0.187
TCATATAA	-0.158
TAAATTCA	0.153
CCACCAGA	-0.0981
GTACATCA	0.148
ATCGAATA	0.211
AGCTGCCT	-0.262
CGACGTAC	0.343
CGTAGACG	0.262
CGCCCTAC	-0.157
AACAACTC	-0.155
GCGTGTAA	-0.0726
ACGGTCCG	0.101
GGGCACAA	-0.196
GTCGAAGA	-0.221
CGTGCAAA	-0.0116
GGCAAACA	-0.0967
CCAGATCC	-0.308
CCCATTAG	-0.184
ATATGAGA	-0.0431
ACTAATTG	-0.205

Sequence	PBM E-score
ACGTCGAG	0.00439
GAACGTGC	-0.0573
GAGAGTGC	-0.00591
GAGAAGGA	-0.13
CACTATAG	-0.0997
GCTACATA	-0.136
CCACGACC	-0.102
AGCTACTC	-0.129
AAAATGGG	-0.228
CACATTAC	0.123
AGCTCGGC	0.118
AGCCACTA	-0.0515
CGGTCATC	-0.0276
GGATTTAC	0.00936
CCCCACGG	-0.0929
GAATCTCA	-0.11
CTCAGATC	-0.131
GAAGGTAA	0.0165
ACGTGCGG	0.033
CTCTTCTA	-0.0366
ATATCCTA	-0.248
ACTAATGC	-0.0495
AAGAACTG	-0.0756
ACGCCGTC	-0.00209
TGTGGGAA	-0.121

Sequence	PBM E-score
CCGACCTC	0.00754
CTCAGACA	-0.0805
AATCATTG	-0.147
AGCCTGAT	-0.204
GGCGTCGA	-0.0727
ATACGCAC	0.334
ATCGTCCA	-0.25
ACGGAGTA	0.156
AGACATTG	-0.211
TACTGAAA	0.0835
GGCTAAGA	-0.18
AACCAGTT	0.0333
AGCGCCGG	-0.0104
CGTACACC	0.382
GCCCCGAC	-0.0884
GGTTATGA	0.00464
AAGCTCCC	-0.109
CAGGCTCA	-0.089
GGTGATCA	-0.155
TATTATAA	-0.00035
AGATGTCA	-0.221
ACGTACAC	0.297
ACGCGCGT	0.263
AAAGGGCT	-0.235
AGCCTCGG	0.0155

Sequence	PBM E-score
AGGCCACT	-0.203
TCGCAGAA	-0.089
AATAGTCT	-0.0362
ATGTCGGC	-0.205
TACCAAGA	0.0928
CCCCAGCA	-0.179
GCAGTTGA	-0.152
AACTGCCC	-0.152
ACAGTTTC	-0.0564
CCAAAACG	0.114
TACACCAA	-0.0956
CCACAGGA	-0.218
AAGAGCCC	-0.19
AGTCCAAA	-0.172
ACTTCAAT	-0.0198
ATTGTTGC	-0.0274
CTGGCGTC	-0.0985
CACCCGAC	0.0618
ATTCCCTA	-0.203
AAGCGCCA	-0.163
CCTTTTCA	-0.115
GAGCCATC	-0.0969
CCACGAAA	-0.0902
CCCTCCCG	-0.0429
CGACTCCG	-0.0146

Sequence	PBM E-score
TGGGCAAA	-0.165
AAATAATC	0.0127
ACGCGTTC	0.174
AAAGCGCA	-0.129
CTAAAATA	-0.00736
CTTCCCCC	-0.269
ATGCATAC	0.197
CATGCCAA	-0.0735
ATGAAAGA	-0.033
AACTCCCG	0.212
TTACTCAA	0.0201
ACTCGGCC	-0.048
ATGTAGTG	-0.232
GTTATAAA	0.0516
CTCACAGA	-0.11
AGTTGCAG	-0.199
GTTAGTAA	0.1
AAGACTTG	-0.00965
AGTGGTGA	-0.163
AGCCATAG	-0.124
ACAAAACA	0.00904
CCGGACGC	0.0445
CCTTTACC	-0.191
CGATTGCG	-0.0045
ACTTGATA	-0.0769

Sequence	PBM E-score
CTGCGCCC	-0.274
AATGCTAG	-0.178
ATGTGGCA	-0.161
AGTTCGCC	-0.0959
CGGACGGC	-0.123
AAGCGATA	0.205
AAGTAATG	-0.0743
GTCAATAA	0.0324
TATGATGA	-0.0393
ACCTTATG	-0.189
CGCTACAA	0.0263
CGGAGATC	-0.111
CAACTCTA	-0.285
GACCCGTA	0.318
CTGAGTGC	-0.172
CTACTAAA	0.00659
CTTGGTTA	-0.084
GCGGGCGA	-0.0924
AAGTTTTG	-0.0401
CGAAACGA	0.447
CAGTCGGA	-0.016
AGATCTAC	0.0981
